Laboratory results taken from PubChem BioAssay AID651820 (National Center for Advancing Translational Sciences (NCATS), 2012).
Hit rate of the full screen: of about 340,000 compounds, about 12,000 (3.5%) were called active. Inconclusive means that the source gave no clear call. Such entries were picked first, then a sample of the others. Calls come from the whole dose curve; as a rule, active = well fitted inhibition curve with a large enough effect; inconclusive = small, poorly fitted or top-dose-only effect, or another doubt; inactive = no such curve, though single readings can be large or run the other way. Potencies of inconclusive entries are left out as doubtful fits.

Assay: qHTS Assay for Inhibitors of Hepatitis C Virus (HCV)
Conditions: Huh7.5.1 HCVcc-Cre (HCVcc is cell-culture hepatitis C virus) infection, luciferase reporter, 44 h; activity change, negative = inhibition: at 41.8 µM (top of the series) unless noted
Summary of the method: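 Reporter virus HCVcc-Cre (~0.5 moi) infects cells exposed to compound; seeding density 1,000 cells/well with 4 h settling beforehand. Luminescence, 15 sec read, taken 44 h post-infection following a 15 min RT substrate incubation.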
% is set by controls: 0 for no effect and ±100 for the full control effect; potency is the fitted concentration of half-maximal effect; tags give direction and shape of the fitted curve.

Question: For COc1ccccc1N1CCN(C(=O)c2cccc(S(=O)(=O)NCc3cccnc3)c2)CC1, which Potency is on record?
Answer: Its Potency is inconclusive [inhibitor, single point].

Question: Which Potency does the source give for COC(=O)c1cc(NC(=O)c2ccc(Cn3cc(Cl)cn3)o2)cc(C(=O)OC)c1 here?
Answer: Its Potency is inconclusive [inhibitor, partial curve].

Question: With COc1cccc(/C=N/NC(=O)NC2CCCCC2)c1O as the compound, how does the Potency read?
Answer: Its Potency is “inactive”.

Question: Which Potency does the source give for COc1ccc(CCC(=O)N2CCN(c3ccc(OC)cc3)CC2)cc1 here?
Answer: The Potency was “inactive”.

Question: Which Potency does the source give for CCOC(=O)c1cc(-c2ccc3c(c2)OCO3)nc2onc(C)c12 here?
Answer: Its Potency is inconclusive [inhibitor, full curve, poor fit].

Question: Which Potency does the source give for Cc1ccc[n+](C(C)C(=O)Nc2ccc(C)c([N+](=O)[O-])c2)c1 (stereo not drawn) here?
Answer: Its Potency is inconclusive [inhibitor, single point].

Question: With c1cc2c(cc1C1OCC3C(c4ccc5c(c4)OCO5)OCC13)OCO2 (stereo not drawn) as the compound, how does the Potency read?
Answer: Its Potency is inconclusive [inhibitor, partial curve].

Question: With CCOc1ccc(N2C(=O)CSC2=S)cc1 as the compound, how does the Potency read?
Answer: The Potency was “inactive”.

Question: Which Potency does the source give for CC1Sc2ccc(S(=O)(=O)CCC(=O)N(C)Cc3ccccc3)cc2NC1=O (stereo not drawn) here?
Answer: The Potency was “inactive”.

Question: Which Potency does the source give for COc1ccc(/C=N/Nc2cc(C)nc(N)n2)cc1 here?
Answer: Its Potency is “inactive”.

Question: With O=C(Nc1ccc(Br)cn1)c1ccc([N+](=O)[O-])o1 as the compound, how does the Potency read?
Answer: Its Potency is inconclusive [inhibitor, single point].

Question: For CCOC(=O)c1c(NC(=O)COC(=O)CCOc2ccc(OCC)cc2)sc(C(=O)N(C)C)c1C, which activity change, negative = inhibition is on record?
Answer: The activity change, negative = inhibition was inconclusive: -52.6% [inhibitor].

Question: With COc1cc(/C=C/C(=O)Nc2cc(C(F)(F)F)ccc2Cl)cc(OC)c1OC as the compound, how does the Potency read?
Answer: The Potency was inconclusive [inhibitor, full curve].

Question: Which Potency does the source give for O=C1C(=O)N(CCS(=O)(=O)c2ccccc2)c2ccc(Cl)cc21 here?
Answer: The Potency was “inactive”.

Question: Which Potency does the source give for O=C(C1CCN(S(=O)(=O)c2ccc(Br)s2)CC1)N1CCc2ccccc21 here?
Answer: The Potency was inconclusive [inhibitor, single point].

Question: With CCOc1ccc(-c2nnc(SCC(=O)NC(C)(C)C)nc2-c2ccc(OCC)c(OC)c2)cc1OC as the compound, how does the Potency read?
Answer: Its Potency is inconclusive [inhibitor, single point].

Question: Which Potency does the source give for CCCn1nc(NC(=O)c2ccco2)c2cc3ccc(C)cc3nc21 here?
Answer: The Potency was inconclusive [inhibitor, single point].

Question: With CCCCCOC(=O)C1=C(C)NC(=O)NC1c1ccc(OC)cc1 (stereo not drawn) as the compound, how does the Potency read?
Answer: The Potency was inconclusive [inhibitor, partial curve, poor fit].

Question: For CCC(C)N(CCNC(=O)c1ccc2c(c1)NC(=O)c1ccccc1S2)C1CCCCC1 (stereo not drawn), which Potency is on record?
Answer: The Potency was active: 22.4 µM.

Question: Which Potency does the source give for Cc1ccc2[nH]c(=O)c(CN(Cc3ccco3)C(=O)CN3CCCC(C)C3)cc2c1 (stereo not drawn) here?
Answer: Its Potency is “inactive”.

Question: For C=CCn1c(SCC(=O)N(CC)C2CCS(=O)(=O)C2)nc2cc(C(=O)O)ccc2c1=O (stereo not drawn), which Potency is on record?
Answer: Its Potency is inconclusive [inhibitor, single point].

Question: With COCCNC(=O)C(=O)Nc1cccc(Br)c1 as the compound, how does the Potency read?
Answer: Its Potency is “inactive”.

Question: With COCc1cc(C)nc(SCC(=O)Nc2ccccc2N2CCOCC2)c1C#N as the compound, how does the Potency read?
Answer: Its Potency is “inactive”.

Question: Which Potency does the source give for CC[C@]12c3[nH]c4cc(CCC(=O)N(C)C)ccc4c3CCN1C(=O)[C@@H](CC(=O)NCC13CC4CC(CC(C4)C1)C3)C[C@@H]2C(=O)N1CCN(C(=O)c2ccco2)CC1 here?
Answer: The Potency was “inactive”.

Question: With COc1ccccc1N1CCN(C(=O)CN(C)S(=O)(=O)c2ccc3c(c2)c(=O)n(C)c(=O)n3C)CC1 as the compound, how does the Potency read?
Answer: Its Potency is inconclusive [inhibitor, single point].

Question: For CC(=O)N1c2ccc(S(=O)(=O)N3CCC(C(=O)Nc4cccc(C)c4)CC3)cc2CC1C (stereo not drawn), which Potency is on record?
Answer: Its Potency is inconclusive [inhibitor, single point].

Question: For COc1ccccc1N1CCN(C(=O)c2cn(-c3ccccc3)nc2-c2cccnc2)CC1, which Potency is on record?
Answer: The Potency was inconclusive [inhibitor, single point].

Question: With COc1ccc(-c2nc(-c3cccs3)c(-c3cccs3)[nH]2)cc1OC as the compound, how does the Potency read?
Answer: Its Potency is inconclusive [inhibitor, single point].

Question: Which Potency does the source give for CCCn1c(=NC(=O)CCS(=O)(=O)c2ccccc2)sc2cc(S(N)(=O)=O)ccc21 here?
Answer: The Potency was inconclusive [inhibitor, partial curve, poor fit].

Question: Which Potency does the source give for OCCC1CN(Cc2ccc(-c3ccco3)cc2)CCN1Cc1ccsc1 (stereo not drawn) here?
Answer: The Potency was “inactive”.

Question: With CS(=O)(=O)c1ccc2nc(NC(=O)c3ccc(NS(=O)(=O)c4ccc(F)c(F)c4)cc3)sc2c1 as the compound, how does the Potency read?
Answer: Its Potency is inconclusive [inhibitor, single point].

Question: With COc1ccc(-c2cc(C(F)F)nc(-n3nc(C)cc3C)n2)cc1 as the compound, how does the Potency read?
Answer: Its Potency is inconclusive [inhibitor, partial curve].

Question: Which Potency does the source give for CCN1C(=O)C(=O)c2cc(C)ccc21 here?
Answer: The Potency was “inactive”.

Question: With COc1ccc(C(=O)Nc2nc3ccccc3s2)cc1 as the compound, how does the Potency read?
Answer: Its Potency is inconclusive [inhibitor, partial curve].

Question: With O=S(=O)(Nc1ccc(-c2ccc3nncn3n2)cc1)c1ccc(Cl)s1 as the compound, how does the Potency read?
Answer: The Potency was inconclusive [inhibitor, single point].

Question: For O=C(NCc1ccccn1)c1ccc(OC2CCN(Cc3ccc(F)cc3F)CC2)cc1, which Potency is on record?
Answer: The Potency was “inactive”.

Question: With COc1ccc(N2CCN(C(=O)c3ccc(CS(=O)(=O)c4ccccc4C)o3)CC2)cc1 as the compound, how does the Potency read?
Answer: The Potency was inconclusive [inhibitor, single point].

Question: Which Potency does the source give for CCOC(=O)CCNC(=O)Nc1ccc2nc(C)n(Cc3ccccc3Cl)c(=O)c2c1 here?
Answer: The Potency was inconclusive [inhibitor, partial curve].

Question: Which Potency does the source give for Cc1cc(C)c2nc(SCC(=O)Nc3ccccc3N3CCOCC3)c(C#N)cc2c1 here?
Answer: Its Potency is inconclusive [inhibitor, partial curve, poor fit].

Question: Which Potency does the source give for O=c1cc(CSCc2ccc(Cl)cc2)[nH]c(=O)[nH]1 here?
Answer: Its Potency is “inactive”.

Question: For COc1ccc(-c2csc(NC(=O)CSc3nnnn3C)n2)cc1OC, which Potency is on record?
Answer: Its Potency is inconclusive [inhibitor, partial curve].

Question: For OC1(c2ccc(Br)cc2)CN(c2ccccc2)C2=[N+]1CCS2 (stereo not drawn), which Potency is on record?
Answer: Its Potency is inconclusive [inhibitor, single point].

Question: For COc1cc(/C=N/NC(=O)c2ccc3ccccc3c2)ccc1Oc1ccc([N+](=O)[O-])cn1, which Potency is on record?
Answer: The Potency was active: 3.55 µM.
